Experimental data as given in PubChem BioAssay AID1508623 (National Center for Advancing Translational Sciences (NCATS), 2021).
The whole screen tested about 48,000 compounds, of which about 450 (0.94%) were called active. Inconclusive results (about 19%) are left out. Calls follow the shape of the dose curve; as a rule, active = well fitted inhibition curve with a large enough effect; inconclusive = small, poorly fitted or top-dose-only effect; inactive = no such curve, though single readings can be large or run the other way. The list shows a part of the results.

Test: Primary qHTS for Identification of Small Molecule Inhibitors of Huntingtin Promoter Activity; also: nearly all actives have a fitted effect of over 50% in size
Settings: HEK293 HTT promoter firefly luciferase reporter (activity 0% = vehicle and -100% = no light), 24 h; series mostly up to 57.5 µM; activity change, negative = inhibition: at the top concentration
In short: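 HEK293 cells carrying firefly luciferase reporters were seeded at 2,500 per well in Opti-MEM and cultured for 24 h. They were then treated with compounds at up to 57.5 uM final for 24 h at 37 degrees C before Dual-Glo luminescence readout.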

Activity change, negative = inhibition, inactive:
Cc1ccc(Cl)cc1N1CCN(C(=O)COCc2cc(-c3ccc4c(c3)OCO4)on2)CC1 -22.9%
COc1cccc(NC(=O)C2CCN(c3nnc(-n4c(C)ccc4C)s3)CC2)c1 -8.38%
c1ccc(OCc2ccc(CCCN3CCOCC3)cc2)cc1 -7.83%
O=c1cc(O)c(Cl)c[nH]1
Cc1ccc2ccc(Cl)cc2n1 9.33%
CCN(CC)CCNC(=O)c1ccc2c(=O)n3nc(Nc4ccccc4)sc3nc2c1 -17.8%
CC1=C(C(=O)Nc2cccc(C(F)(F)F)c2)C2(CCN(C(C)C)CC2)OC1=O 3.12%
COc1ccc(CNC(=O)CS(=O)(=O)c2cccc3nsnc23)cc1 -8.15%
Cc1ccc(OC(=O)CSc2nnc(-c3cccs3)o2)c(C)c1 2.96%
CC1=C(C(=O)OC2CCCCCC2)C(c2ccc(Cl)cc2)CC(=O)N1 (stereo unspecified) -30%
O=C(c1ccc([N+](=O)[O-])cc1)N1c2ncnn2C2(CCCCC2)[C@@H]2CCCC[C@@H]21 -7.59%
Cc1ccc2nc(-c3ccco3)c(Nc3ccc4c(c3)OCCO4)n2c1 13.4%
COc1ccc(Cn2c(CCC(=O)Nc3ccccc3OC)nc3cccnc32)cc1 -11.6%
CCc1c(C)nc2nc(-c3ccccc3)nn2c1NCc1ccc(C)cc1 -5.28%
CC(C)OCCCn1c(=O)c2ccccc2n2c(-c3ccccc3F)nnc12 -26.8%
Cc1oc2ccc(O)c(CN3CCCC(C)C3)c2c1C(=O)Nc1ccccc1 (stereo unspecified) -9.74%
COc1ccc2c(c1)c(=O)c(C(=O)c1ccc(Cl)cc1)cn2CC(=O)Nc1ccc2c(c1)OCCO2 -5.51%
O=C1CC2(CCCC2)CC(=O)N1CCCCN1CCN(c2ncccn2)CC1 -4.52%
Cc1ccc2nc(-c3c[nH]c4ccccc34)c(Nc3ccc(F)cc3)n2c1 8.8%
Cc1ccc(CNC(=O)C(C)n2c(=O)cc(-c3ccccc3)c3c(C)nn(C)c32)cc1 (stereo unspecified) -18.1%
O=C(CCS(=O)(=O)c1cccc2nonc12)Nc1ccc(F)cc1F -0.88%
Cc1oc(-c2ccccc2Cl)nc1CSc1nncn2c1cc1occc12 9.35%
COc1ccc(Br)cc1CNC(=O)Cn1ncn2nc(-c3cccs3)cc2c1=O 2.96%
Cc1ccc(-c2nnn3c2nc(NCc2ccc4c(c2)OCO4)c2ccccc23)cc1 -8.95%
COc1ccc2c(Sc3ccccc3)c(C(=O)NCc3cc(Br)ccc3OC)[nH]c2c1 -20.5%
CCCn1ccc2c(OCC(=O)Nc3ccc(OC)c(OC)c3)cccc2c1=O -15.8%
O=C(NOC[C@H](O)CO)c1ccc(F)c(F)c1Nc1ccc(I)cc1F 4.64%
COc1ccccc1CNC(=O)c1ccc(CSc2nc3ccncc3n2Cc2cccc(F)c2)cc1 -29.9%
Cc1ccc(OCC(=O)Nc2nc(-c3ccc(Br)cc3)ns2)cc1 -6.32%
CCOc1ccccc1CNc1nc2nc(C)c(CC(=O)OC)c(=O)n2[nH]1 -15.7%
Cc1cccc(-c2nc(C)c(CCNC(=O)C(=O)Nc3ccc(C)c(C)c3)s2)c1 -8.09%
CN/C(=C\[N+](=O)[O-])NCCSCc1csc(CN(C)C)n1 7.75%
O=C(CSc1nc(=O)[nH]c2c1CCC2)NCc1ccc(F)cc1 -12.9%
Cc1cc(C)c(/C=C2\C(=O)Nc3ccccc32)[nH]1 7.32%
Cc1ccc(-n2ncc3c(N4CCN(Cc5ccccc5)CC4)ncnc32)cc1 -14.8%
Cc1ccccc1NC(=O)CSc1ccc(-c2ccccn2)nn1 1.38%
COc1ccccc1-c1nn(CCC(=O)Nc2ccc(C)cc2)c2nc(C)cc(C)c12 -12.3%
CCN1CCN(CCCNC(=O)Cn2nc(C)n3c(cc4c(OC)cccc43)c2=O)CC1 0.732%
CC1=C(C(N)=O)C(c2ccc(C)cc2)n2nc(SCc3ccccc3)nc2N1 (stereo unspecified) -12.3%
O=C(NCc1ccccc1Cl)C1=Cc2cc(Br)ccc2OC1 -12.2%
CCOC(=O)NNC(=O)C1CCC(C)CC1 (stereo unspecified) 1.74%
CC(C)Oc1ccc(CNC(=O)c2cnc3sc(N4CCCC4)nn3c2=O)cc1 9.9%
Cc1oc2c(c1C(=O)NCc1ccccc1F)C1=NCCN1C=N2 -2.87%
O=C(NCC(c1ccc2c(c1)OCO2)N1CCN(c2ccccc2)CC1)C(=O)Nc1ccccc1F (stereo unspecified) -20.4%
CC(=O)Nc1cccc(-c2nnc(SCC(=O)c3cc([N+](=O)[O-])ccc3Cl)o2)c1 -32.1%
CCN(CC)C(=O)Cn1ncc2c([nH]c3ccccc32)c1=O -0.847%
CCOC(=O)c1cnc2ccc(C(=O)OC)cc2c1Nc1ccc(OCc2ccccc2Cl)cc1 -16.3%
COc1ccc(C)cc1NC(=O)N(C(C)C)C1CCN(C(C)=O)CC1 6.49%
Cc1ccc(-c2nnc3ccccc3c2C(=O)Nc2ccc(F)cc2)cc1 -13.5%
O=C(O)c1cc(-c2ccccc2)nn1Cc1ccccc1 20.3%
Cc1ccc(N2CCN(c3nc4ccc(C(=O)c5ccccc5)cc4n4cnnc34)CC2)c(C)c1 -17.8%
Cc1ccn2c(Nc3ccccc3)c(-c3c[nH]c4ccccc34)nc2c1 54.4%
Cc1cc(C)cc(NC(=O)C(=O)NCCc2sc(-c3cccc(F)c3)nc2C)c1 -16.9%
CC(=O)Nc1ccc(NC(=O)c2ccc3c(c2)CCN3S(=O)(=O)c2ccc(C)cc2)cc1 -21.3%
Cc1noc(Cn2c(=O)c3ccccc3n(CC(=O)Nc3cc(Cl)ccc3C)c2=O)n1 -4.94%
CCOC(=O)c1[nH]c2ccccc2c1NC(=O)c1ccc(C)c(C)c1 9.87%
O=C(CSc1n[nH]c(-c2ccccc2)n1)N1CCN(c2ccc(F)cc2)CC1 -2.88%
Cc1ccc(-c2nnc(Nc3ccc(OCC(N)=O)cc3)c3ccccc23)cc1S(=O)(=O)NCC1CCCO1 (stereo unspecified) -7.66%
O=C(O)C(S)C(S)C(=O)O (stereo unspecified) -6.18%
Cc1ccc(-n2c(=O)c3c(cnn3C)n(CC(=O)Nc3cccc(Cl)c3)c2=O)cc1 -9.48%
CCOc1ccccc1NC(=O)CN1C(=O)CC(c2ccc(C)c(C)c2)=Nc2ccccc21 78.2%
CCn1nc(C(=O)O)c(=O)c2cc3c(cc21)OCO3 7.52%
CCc1ccccc1NC(=O)CCn1cccn1 -7.01%
Cc1ccc(CSc2nc3ccccc3c3nc(CCn4c(C)nc5ccccc54)nn23)cc1 5.25%
CCOc1ccc(NC(=O)c2ccc3c(=O)n4c(nc3c2)CCCCC4)cc1 -10.4%
Cc1cc(C)cc(NC(=O)C(C)N2Cc3ccccc3C2=O)c1 (stereo unspecified) -13.9%
Cc1ccc(-c2nnc(SCc3ccccc3)o2)cc1 66.7%
CCCNC(=O)CN1C(=O)COc2ccc(S(=O)(=O)N3CCCCCC3)cc21 -3.01%
CCc1ccc(CNC(=O)CN2C(=O)C3CCCCN3c3ccc(C(=O)N4CCCC4)cc32)cc1 (stereo unspecified) -14.9%
CC1CCN(S(=O)(=O)c2ccc3c(c2)N(C)C(=O)CC(=O)N3C)CC1 -11.4%
COc1ccccc1NC(=O)c1cc2c(-c3ccccc3)nn(-c3ccccc3)c2s1 -7.91%
CCc1ccccc1NC(=O)Cn1c(=O)n(C(C)C)c(=O)c2oc3ccccc3c21 -5.97%
COc1ccc(OCc2nc3ccccc3n2Cc2ccc(C(C)(C)C)cc2)cc1 8.14%
CCN(CC)C(=O)Cn1c(SCC(=O)Nc2ccc(F)cc2)nc2ccccc21 -17.8%
O=S1(=O)OC(c2ccc(O)cc2)(c2ccc(O)cc2)c2ccccc21 -5.25%
Cc1cc(=O)n2nc(N3CCC(C(=O)Nc4ccc(Br)c(C)c4)CC3)sc2n1 -14.2%
COCCNC(=O)c1ccc(Cn2c(SCC(N)=O)nc3ccccc3c2=O)cc1 -12.6%
CCOc1ccccc1C(=O)NCc1ccc2c(c1)CCN2C(=O)c1ccc(F)cc1 -21.2%
COc1cccc(OCCSc2nc3ccccc3n2CC(=O)N2CCOCC2)c1 -16%
COc1ccc2c(CNC3CCC(C)CC3)c(C(=O)O)n(Cc3ccc(F)cc3)c2c1 (stereo unspecified) -18.5%
Cc1ccc(N(Cc2cccs2)C(=O)c2ccc(OC(C)C)cc2)cc1 -22.1%
CCOC(=O)c1ccccc1NC(=O)CSc1ccc(-c2sc(C)nc2C)nn1 -10.9%
COc1ccc(-c2noc(CN(C(=O)c3ccc(C)cc3C)C(C)C)n2)cc1 -22.3%
Cc1ccc(C(=O)NCCc2csc(-c3cccc(F)c3)n2)cc1C -15.6%
CCN(C(=O)c1c(C)oc2ncnc(N3CCCCC3)c12)c1cc(C)ccc1C -2.99%
COc1ccc(C2CC(=O)Nc3c2c(C)nn3-c2nncc(-c3ccccc3)n2)c(OC)c1OC (stereo unspecified) -24.3%
COc1cc2nc(NCCc3cccc(C)c3)n3nc(-c4ccccc4)nc3c2cc1OC 4.26%
CCOC(=O)c1cccc(NC(=O)COc2ccc3c(C)cc(=O)oc3c2)c1 14.9%
CCOC(=O)c1cnc2c(ccc3ccccc32)c1Nc1ccccc1O 7.59%
Cc1cc(C)cc(NC(=O)NCc2noc3ccccc23)c1 -9.59%
CCOc1ccccc1C(=O)Nc1cccc(-c2nc3ccccc3s2)c1 0.905%
COc1ccc(-c2cn3c(n2)sc2cc(C(=O)NCCc4ccccc4)ccc23)cc1 -11.4%
COc1ccccc1/C=C/c1nc(C#N)c(NCc2ccccc2)o1 -9.44%
Cc1ccc(C)c(NC(=O)c2cnc(N3CCCC3)nc2C)c1 -6.67%
Cc1cc(CS(=O)(=O)c2ccccc2)cc(OCc2ccc(CN3CCC[C@H]3CO)cc2)c1 3.06%
O=C(OCc1cc(=O)n2nc(C3CC3)sc2n1)c1cccc(NC(=O)c2ccccc2Cl)c1 -18.3%
COc1ccc(-n2ncc(C(=O)NCc3cccs3)c2C2CCN(C(=O)OC(C)(C)C)CC2)cc1 -8.83%
Cc1cccc(CNC(=O)C2CCN(c3nn4cc(-c5ccc(F)cc5)nc4s3)CC2)c1 4.37%
O=C(Cc1ccc(Cl)cc1)NC1CC(=O)N(c2ccc3c(c2)OCCO3)C1 (stereo unspecified) 2.62%
COCCOC(=O)C1=C(C)NC(C)=C(C(=O)OC/C=C/c2ccccc2)C1c1cccc([N+](=O)[O-])c1 (stereo unspecified) -28.7%
CCOc1ccc(-c2cn3c(n2)sc2cc(C(=O)NC(C)C45CC6CC(CC(C6)C4)C5)ccc23)cc1 (stereo unspecified) 15.6%
